# Measurements reported in PubChem BioAssay AID662 (National Center for Advancing Translational Sciences (NCATS), 2007).
# The whole screen tested about 71,000 compounds, of which about 1,800 (2.5%) were called active. The inconclusive results got no clear call from the source; some entries with a clear call stand among them for comparison. Calls follow the shape of the dose curve; as a rule, active = well fitted activation curve with a large enough effect in the signal ratio, with a control signal flat (not every such curve was filed as active); inconclusive = small, poorly fitted or top-dose-only effect, or effect the other way, or a change in a side signal; inactive = flat fitted curve, though single readings scatter; the % refers to the signal ratio. Where the call is inconclusive, the potency comes from a doubtful curve fit.
# Assay: Cell signaling CRE-BLA (Fsk stim); as to activity change, negative = inhibition: % of control where 0% means no effect
# Conditions: CHO CRE-bla reporter (cAMP response element driving beta-lactamase), forskolin EC10, beta-lactamase ratio; activity change, negative = inhibition: at 38.2 µM (top of the series) unless noted
# How it was run: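 Titrated compounds plus EC10 NKH 477 on CHO CRE-bla cells, 3 h, 37 °C. CCF4, 2 h RT. Ratio 460/530 nm → AC50.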
# Potency is read from the fitted curve at half-maximal effect; tags tell the direction and shape of the fitted curve.
Structure (SMILES),"activity change, negative = inhibition",Potency
CCOC(=O)CS(=O)(=O)c1nc(-c2ccccc2)cc(C(F)(F)F)n1,inconclusive: -15.9%,–
c1ccc(-c2cn3c4c(sc3n2)CCCC4)cc1,inconclusive: 14.2%,–
O=C(O)CNS(=O)(=O)c1cc(Cl)c(Cl)cc1Cl,inactive: -7.25%,–
COc1ccc(-c2nc3c(c(=O)n(C)c(=O)n3C)n2CC2CC(c3ccccc3)=NO2)cc1OC (configuration not stated),inactive: 13.7%,–
O=C(NC1CCCCC1)c1ccc(S(=O)(=O)NCc2ccco2)cc1,inconclusive: -1.25%,–
O=C(CN1C(=O)C2C3C=CC(C3)C2C1=O)Nc1ccc2nccnc2c1 (configuration not stated),inactive: 0.44%,–
O=C(Nc1cccc(F)c1)c1cc(S(=O)(=O)N2CCC(C(=O)O)CC2)ccc1F,inconclusive: 5.54%,–
Cc1ccc2cc(C#N)c(SCC(=O)NCC3CCCO3)nc2c1 (configuration not stated),inactive: -10.5%,–
CC1CCN(C(=O)C2c3ccccc3C(=O)N3CCc4ccccc4C23)CC1 (configuration not stated),inconclusive: -9.61%,–
CCC(CC)C(=O)Nc1cc(OC)c(OC)cc1C(=O)O,inactive: 7.54%,–
CCOC(=O)c1cc2n(c1C)-c1ccccc1C2=O,–,active: 15.8 µM
CC(C)[C@@H](CC(=O)N[C@@H]1CCCC[C@H]1C(=O)N[C@H](CC(=O)N[C@@H](CCC(=O)O)CC(=O)O)Cc1ccccc1)NC(=O)C[C@H](CO)NC(=O)[C@@H]1CCCC[C@H]1N,inconclusive: -15.2%,–
Cc1ccc(CCNC(=O)C2CCN(c3nn4c(=O)cc(C)nc4s3)CC2)cc1,inconclusive: 15.4%,–
COc1cc(OC)nc(NC(=O)CSc2nnc(-c3ccccc3)n2C2CCCCC2)n1,inactive: 1.53%,–
O=C(CCn1cccc1)NCc1ccc(Cl)cc1,inactive: -5.37%,–
COCCNC(=O)c1c(N)sc2c1CCCC2,inconclusive: 24.5%,–
CC1CN(C(=O)c2cc3c(=O)n4ccccc4nc3s2)CC(C)O1 (configuration not stated),–,"inconclusive: 12.6 µM [rising, partial curve]"
COc1ccc(Cl)cc1C(=O)Nc1ccc(NC(=O)c2ccco2)cc1,inactive: 21.9%,–
CCOc1ccc(Br)cc1/C=N/O,inconclusive: 26.6% [at 7.6 µM],–
O=C(CCCN1CCC(c2ccccc2)C1)c1ccc2c(c1)OCCO2 (configuration not stated),inactive: -8.02%,–
COC(=O)c1ccc(CSc2nc3ccccc3s2)o1,–,"inconclusive: 12.6 µM [rising, partial curve]"
O=C(Cn1cc2c(n1)CCCCC2)Nc1ccc(F)cc1F,inactive: 0.387%,–
Cc1noc(NS(=O)(=O)c2ccc(NC(=O)Nc3ccc(Cl)c(Cl)c3)cc2)c1C,inconclusive: -15.4%,–
Cc1ccc2[nH]c(=O)c(COC(=O)C3CCCO3)cc2c1 (configuration not stated),inactive: 4.35%,–
CC(C)Oc1ccccc1C1CC(=O)Nc2cc3c(cc21)OCO3 (configuration not stated),–,active: 5.01 µM
COc1ccc(C2C=C(C)Nc3nc(SC)nn32)cc1 (configuration not stated),inconclusive: 25.5%,–

Structure (SMILES),"activity change, negative = inhibition",Potency
COc1ccccc1-c1ccc2ncnc(NCc3cnc(C)cn3)c2c1,inconclusive: 20.5%,–
COC(=O)Cn1c2ccccc2c2nc(C)sc21,inactive: 3.79%,–
Cc1ccc(OCc2nnc(SCC(=O)c3ccccc3)n2Cc2ccco2)cc1,–,"inconclusive: 7.94 µM [falling, partial curve]"
COc1ccc(-c2nc3cnc(N(C)C)nc3n(Cc3ccc(F)cc3)c2=O)cc1,–,"inconclusive: 1.26 µM [rising, full curve]"
CCOC(=O)c1c(NC(=O)c2ccn(CC)n2)sc2c1CCCC2,–,"inconclusive: 7.94 µM [rising, partial curve, poor fit]"
COc1ccc(-c2noc(CCC(=O)NCCCN3CCC(Cc4ccccc4)CC3)n2)cc1,–,"inconclusive: 20 µM [falling, single point]"
COc1ccc(NC(=O)Cn2nc(C(F)(F)F)c3c2CCCC3)c(OC)c1,inactive: 3.82%,–
CCOC(=O)C1CCN(C(=O)CSc2cc(=O)n(CC)c3ccccc23)CC1,–,"inconclusive: 7.94 µM [rising, partial curve]"
Cc1ccc(S(=O)(=O)Nc2ccc(NC(=O)CN3CCCCC3)cc2)cc1,inconclusive: -21.5%,–
CCCCn1c(SCc2ncc(-c3ccccc3)o2)nc2cc(S(N)(=O)=O)ccc21,–,"inconclusive: 12.6 µM [rising, single point]"
CCOc1ccccc1NC(=O)CSc1nnc(-c2cnccn2)n1C,–,"inconclusive: 20 µM [rising, single point]"
CCN(CC(=O)NCCc1ccc(S(N)(=O)=O)cc1)Cc1nc2ccccc2c(=O)[nH]1,inconclusive: -10.6%,–
Cc1ccc(-c2nn3c(C)nnc3s2)cc1NCc1c(F)cccc1Cl,–,"inconclusive: 3.16 µM [rising, full curve]"
CCCC(=O)NC(Nc1ccc(S(=O)(=O)Nc2cc(C)on2)cc1)(C(=O)OCC)C(F)(F)F (configuration not stated),inconclusive: 6.79%,–
O=c1cc(N2CCc3ccccc3C2)[nH]c(=O)n1-c1ccc(Br)cc1,inconclusive: 7.52%,–
CCOC(=O)C1CCN(C(=O)CSCCSCC(=O)N2CCC(C(=O)OCC)CC2)CC1,–,"inconclusive: 5.01 µM [falling, single point]"
COCCn1c(=S)[nH]c2cc(C(=O)N3CCc4ccccc43)ccc2c1=O,–,"inconclusive: 12.6 µM [rising, single point]"
CCOC(=O)c1ccc(NC(=O)c2cc3ccccc3o2)cc1,inactive: 0.334%,–
CC(C)CCC[C@@H](C)[C@@H]1CC[C@@H]2[C@H]3CC[C@H]4C[C@@H](N)CC[C@@]4(C)[C@@H]3CC[C@]21C,inactive: 4.05% [at 7.6 µM],–
COc1ccc(C(=O)c2no[n+]([O-])c2C(=O)c2ccc(OC)cc2)cc1,inconclusive: 18.8% [cytotoxic],–
Cc1cc(C(=O)CN2C(=O)NC(Cc3c[nH]c4ccccc34)C2=O)c(C)n1C (configuration not stated),–,"inconclusive: 1.58 µM [rising, partial curve]"
Cc1ccccc1NC(=O)c1ccc(F)c(S(=O)(=O)N2CCN(c3ccccn3)CC2)c1,–,"inconclusive: 12.6 µM [rising, partial curve]"
CCCN(CCC(=O)Nc1ccccc1F)CC1CC1,inconclusive: -15.7% [at 7.6 µM],–
CCOc1ccc2[nH]c(=O)c(CN(Cc3cccs3)Cc3nnnn3C(C)(C)CC)cc2c1,–,"inconclusive: 20 µM [falling, single point]"
NCCC[C@@H](CC(=O)N[C@@H]1CCNC[C@H]1C(=O)N[C@H](CC(=O)N[C@@H](CCC(=O)O)CC(=O)O)Cc1c[nH]c2ccccc12)NC(=O)C[C@H](CO)NC(=O)[C@@H]1CCCC[C@H]1N,inconclusive: -11.6%,–
O=C1CN(c2nc3ccccc3n3cnnc23)CC(=O)N1CCc1ccccc1,–,"inconclusive: 12.6 µM [rising, single point]"

Structure (SMILES),"activity change, negative = inhibition",Potency
COc1ccc(C(C)=O)c(OC(=O)c2ccc(OC)c(OC)c2)c1,–,"inconclusive: 10 µM [rising, partial curve]"
CCCCNc1nc(C)nc2c1nc(-c1ccccc1)n2CC1CCN(C)CC1,inactive: -2.68%,–
CCOc1cc(C)c(Cl)cc1S(=O)(=O)n1nnc2ccccc21,inconclusive: 15.6% [cytotoxic],–
Cc1ccc(-c2c3c(=O)n(C)c(=O)n(C)c3cn2Cc2ccccn2)cc1,inconclusive: 0.536%,–
Cc1cccc2cc3c(NC(=O)C(C)C)nn(C)c3nc12,–,active: 3.16 µM
COCCNC(=O)Cc1cn(C)c2ccccc12,–,"inconclusive: 0.0398 µM [rising, full curve, poor fit]"
Cc1ccc(/C=c2\s/c(=C(/C#N)C(=O)N3CCCC3)n(Cc3ccco3)c2=O)s1,–,"inconclusive: 3.98 µM [rising, single point]"
COc1ccc(-n2nnc3c(=O)n(CC(=O)N4CCC(Cc5ccccc5)CC4)cnc32)cc1,inactive: -7.64%,–
c1ccc2c(c1)oc1c(N3CCOCC3)ncnc12,–,"inconclusive: 10 µM [rising, partial curve]"
COC(=O)c1[nH]c2cccc(OC)c2c1NC(=O)CN1CCN(c2cccc(OC)c2)C(C)C1 (configuration not stated),–,"inconclusive: 10 µM [rising, single point]"
Cc1ccc(C(=O)CSc2nnc(-c3ccco3)n2CC2CCCO2)cc1 (configuration not stated),inconclusive: 29.7% [cytotoxic],–
O=C(c1ccc(Br)s1)N1CCN(Cc2ccc3c(c2)OCO3)CC1,inconclusive: -12.4%,–
CC1(C)CC(=O)C2=C(C1)Nc1ccccc1NC2c1cccnc1 (configuration not stated),inactive: -0.325%,–
Cc1noc(C)c1-c1nc(Nc2ccc(F)cc2)c2ccccc2n1,inactive: 15.5%,–
Cc1nc2cnc(N3CCN(C)CC3)nc2n(CCC#N)c1=O,inactive: 14.5%,–
CCOC(=O)c1c(C)[nH]c(C(=O)OCc2c(C)noc2C)c1C,–,"inconclusive: 7.94 µM [rising, partial curve]"
O=C(C1CC1)N1CCN=C1SCc1ccccc1Cl,inactive: -4.19%,–
CC(C)(N=NC(C)(C)C1=NCCN1)C1=NCCN1,inactive: 2.99% [at 7.6 µM],–
COc1ccc(N(CC(=O)Nc2ccc(OC)c(Cl)c2)S(=O)(=O)c2c(C)noc2C)cc1,–,"inconclusive: 15.8 µM [rising, single point]"
COc1ccc(N(C(=O)c2ccc(Br)o2)C2C=CS(=O)(=O)C2)cc1 (configuration not stated),inactive: 3.31%,–
Oc1c(C(Nc2ccccn2)c2ccccn2)ccc2cccnc12 (configuration not stated),–,"inconclusive: 1.26 µM [falling, partial curve]"
COC(=O)N1CCC2(CC1)CN(C(=O)Nc1ccc(OC)cc1)C2,inactive: -5.05%,–
Cc1cc(N2CCN(c3ccccc3)CC2)n2c(n1)nc1ccccc12,inactive: 21.9%,–
Cc1ccccc1Cn1cc(NC(=O)c2cc(-c3cccs3)on2)cn1,inconclusive: 11%,–
O=C(Nc1cccc(-c2nc3ccccc3[nH]2)c1)c1cccc(NC(=O)c2ccco2)c1,–,"inconclusive: 1.26 µM [rising, partial curve]"
